# In article PMC4081100:
# The list shows a part of the results, in another mix than the full data. For some of these results: At the low end of the ranking, values are background and their order means little. The list shows a part of the results. For some of these results: The exact form of the protein is not confirmed.
# Assays:
# Experiment in all cases: universal protein binding microarray (PBM)
# Conditions in all cases: transcription factors of Arabidopsis thaliana; high values mean tight binding; most listed sequences are background and not binding sites; double strand, one strand shown
# GST-NTL6(1-168) = GST-NTL6(1-168) (UniProt Q9SCK6)
# GST-ANAC019 NAC domain = target: T1, GST-ANAC019 NAC domain (UniProt Q9C932)
# T1 sequence: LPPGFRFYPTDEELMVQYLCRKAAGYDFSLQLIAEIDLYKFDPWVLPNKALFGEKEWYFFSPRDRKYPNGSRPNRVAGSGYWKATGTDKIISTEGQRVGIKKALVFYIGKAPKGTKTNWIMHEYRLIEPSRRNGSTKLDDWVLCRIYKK
# GST-ANAC055(1-171) = target: T2, GST-ANAC055(1-171) (UniProt Q9LDY8)
# T2 sequence: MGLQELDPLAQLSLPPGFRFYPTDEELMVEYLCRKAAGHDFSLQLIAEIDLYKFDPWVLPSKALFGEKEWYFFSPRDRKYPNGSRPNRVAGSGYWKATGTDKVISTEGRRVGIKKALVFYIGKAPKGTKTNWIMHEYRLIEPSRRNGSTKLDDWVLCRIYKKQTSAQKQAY
# GST-NST2(1-184) = target: T3, GST-NST2(1-184) (UniProt Q9M274)
# T3 sequence: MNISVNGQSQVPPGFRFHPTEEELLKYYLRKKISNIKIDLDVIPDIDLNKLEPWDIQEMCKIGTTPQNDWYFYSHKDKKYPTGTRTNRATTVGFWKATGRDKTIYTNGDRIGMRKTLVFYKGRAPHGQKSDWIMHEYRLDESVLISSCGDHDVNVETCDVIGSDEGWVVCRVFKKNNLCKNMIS
# GST-NTL8 NAC domain = target: T4, GST-NTL8 NAC domain (UniProt Q9XIN7)
# T4 sequence: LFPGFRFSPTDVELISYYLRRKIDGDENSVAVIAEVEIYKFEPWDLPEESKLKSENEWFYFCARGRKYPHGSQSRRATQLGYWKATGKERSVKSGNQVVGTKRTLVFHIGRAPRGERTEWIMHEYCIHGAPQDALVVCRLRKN
# GST-VND7 NAC domain = target: T5, GST-VND7 NAC domain (UniProt Q9C8W9)
# T5 sequence: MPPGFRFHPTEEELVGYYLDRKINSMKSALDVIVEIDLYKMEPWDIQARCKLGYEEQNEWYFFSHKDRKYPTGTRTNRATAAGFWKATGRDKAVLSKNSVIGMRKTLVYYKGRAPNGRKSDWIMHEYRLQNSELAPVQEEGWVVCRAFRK
# [1] = target: T6, GST-VOZ2 (Arabidopsis thaliana) (UniProt Q9SLB9)
# T6 sequence: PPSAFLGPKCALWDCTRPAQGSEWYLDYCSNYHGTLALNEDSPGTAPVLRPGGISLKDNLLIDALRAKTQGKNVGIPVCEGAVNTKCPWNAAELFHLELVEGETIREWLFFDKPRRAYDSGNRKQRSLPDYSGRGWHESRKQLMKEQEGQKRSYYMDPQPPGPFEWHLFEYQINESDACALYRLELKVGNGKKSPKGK
# GST-WRKY1(266-371) = GST-WRKY1(266-371) (UniProt Q9SI37)
# [2] = target: T7, GST-ANAC092(1-285) full length (UniProt Q9FKA0)
# T7 sequence: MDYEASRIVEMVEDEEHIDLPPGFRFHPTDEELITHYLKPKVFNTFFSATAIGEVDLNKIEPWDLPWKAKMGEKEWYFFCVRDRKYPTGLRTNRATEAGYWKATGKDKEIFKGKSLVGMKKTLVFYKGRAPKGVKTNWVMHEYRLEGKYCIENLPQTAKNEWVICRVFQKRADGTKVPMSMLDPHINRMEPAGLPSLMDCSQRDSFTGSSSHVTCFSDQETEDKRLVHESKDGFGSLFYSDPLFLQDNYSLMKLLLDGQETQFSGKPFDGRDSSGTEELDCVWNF
# GST-NAP(1-166) = target: T8, GST-NAP(1-166) (UniProt O49255)
# T8 sequence: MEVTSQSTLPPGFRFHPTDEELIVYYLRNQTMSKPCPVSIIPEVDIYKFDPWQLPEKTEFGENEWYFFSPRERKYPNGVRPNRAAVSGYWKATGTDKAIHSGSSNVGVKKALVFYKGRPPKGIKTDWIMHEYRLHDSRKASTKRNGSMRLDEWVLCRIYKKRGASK
# GST-ATAF1 NAC domain = target: T9, GST-ATAF1 NAC domain (UniProt Q39013)
# T9 sequence: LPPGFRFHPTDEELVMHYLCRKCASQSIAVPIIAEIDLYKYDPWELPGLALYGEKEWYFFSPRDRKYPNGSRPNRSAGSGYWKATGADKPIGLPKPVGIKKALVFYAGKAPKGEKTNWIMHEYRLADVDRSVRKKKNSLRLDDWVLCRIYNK
# GST-ANAC092(1-176) = target: T10, GST-ANAC092(1-176) (UniProt Q9FKA0)
# T10 sequence: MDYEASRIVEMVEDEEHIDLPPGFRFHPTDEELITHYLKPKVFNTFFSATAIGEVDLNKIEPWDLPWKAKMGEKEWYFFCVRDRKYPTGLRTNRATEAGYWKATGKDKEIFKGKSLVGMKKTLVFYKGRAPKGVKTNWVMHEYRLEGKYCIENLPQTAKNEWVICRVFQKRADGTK
Sequence,binding signal (GST-NTL6(1-168)),binding signal (GST-ANAC019 NAC domain),binding signal (GST-ANAC055(1-171)),binding signal (GST-NST2(1-184)),binding signal (GST-NTL8 NAC domain),binding signal (GST-VND7 NAC domain),binding signal [1],binding signal (GST-WRKY1(266-371)),binding signal [2],binding signal (GST-NAP(1-166)),binding signal (GST-ATAF1 NAC domain),binding signal (GST-ANAC092(1-176))
TCACGCCA,-0.137 E-score,0.223 E-score,0.156 E-score,0.263 E-score,-0.0629 E-score,-0.00158 E-score,0.212 E-score,-0.152 E-score,–,–,–,–
GTGGCGTA,0.006 E-score,0.148 E-score,0.144 E-score,0.3 E-score,-0.0333 E-score,0.0712 E-score,0.0791 E-score,-0.0871 E-score,0.459 E-score,–,–,–
ACGTTTTC,0.196 E-score,–,–,–,0.225 E-score,0.327 E-score,0.0558 E-score,-0.0731 E-score,–,0.29 E-score,–,–
GTTGCGTA,0.184 E-score,0.461 E-score,0.431 E-score,–,0.216 E-score,0.466 E-score,0.31 E-score,0.0239 E-score,–,0.477 E-score,0.415 E-score,–
CACGACAC,-0.0228 E-score,–,0.372 E-score,–,–,0.348 E-score,-0.129 E-score,-0.057 E-score,0.355 E-score,–,–,–
ACACGTTA,-0.0829 E-score,–,–,–,0.00655 E-score,0.237 E-score,0.034 E-score,-0.085 E-score,–,0.222 E-score,–,–
ATACGTCA,0.00949 E-score,–,–,0.183 E-score,-0.15 E-score,0.322 E-score,-0.0854 E-score,0.196 E-score,–,–,0.345 E-score,–
CGAGGAAA,0.138 E-score,0.0533 E-score,0.139 E-score,–,0.442 E-score,0.173 E-score,0.1 E-score,-0.155 E-score,–,0.0581 E-score,–,–
CTTACGTA,0.161 E-score,–,–,–,–,0.433 E-score,0.0457 E-score,0.0499 E-score,0.435 E-score,–,–,–
CACGCAAC,0.0393 E-score,–,0.463 E-score,–,0.181 E-score,0.484 E-score,0.275 E-score,-0.0587 E-score,–,–,–,–
CACGTAAG,–,–,–,–,0.17 E-score,0.447 E-score,-0.0655 E-score,0.0233 E-score,0.446 E-score,–,–,0.449 E-score
GAGACGTA,0.034 E-score,–,0.395 E-score,–,-0.0497 E-score,0.413 E-score,-0.119 E-score,0.0734 E-score,–,0.396 E-score,0.411 E-score,–
TGCACGCA,-0.0893 E-score,0.355 E-score,–,–,-0.0147 E-score,0.32 E-score,0.0267 E-score,-0.168 E-score,0.458 E-score,0.265 E-score,–,–
ATGGCGTA,-0.102 E-score,-0.114 E-score,0.0256 E-score,–,0.0267 E-score,0.192 E-score,0.016 E-score,-0.102 E-score,–,–,–,–
ACGCAAAT,0.0591 E-score,0.268 E-score,–,0.265 E-score,0.0579 E-score,0.281 E-score,0.137 E-score,0.0212 E-score,–,–,0.262 E-score,–
ATGCGTGC,-0.0926 E-score,0.276 E-score,–,–,-0.0402 E-score,0.138 E-score,-0.0917 E-score,-0.151 E-score,–,–,–,–
AAGGAATC,0.42 E-score,-0.00477 E-score,-0.00846 E-score,–,–,0.0278 E-score,-0.0879 E-score,-0.0502 E-score,–,-0.224 E-score,0.0816 E-score,–
CAAGGAAA,0.31 E-score,–,–,–,0.46 E-score,0.181 E-score,0.0854 E-score,0.0889 E-score,–,0.0952 E-score,–,–
GTACGCCA,-0.0218 E-score,–,–,–,-0.0304 E-score,0.114 E-score,0.138 E-score,-0.0721 E-score,–,0.0526 E-score,–,–
GGCGTGTA,-0.0585 E-score,0.198 E-score,–,–,-0.0443 E-score,-0.00476 E-score,0.141 E-score,-0.1 E-score,–,0.13 E-score,–,–
AGTCAACA,0.0859 E-score,0.125 E-score,0.0844 E-score,0.0624 E-score,–,0.0805 E-score,-0.0554 E-score,0.488 E-score,–,-0.0353 E-score,–,–
ACACGCCT,-0.112 E-score,–,0.173 E-score,0.0466 E-score,-0.0806 E-score,-0.0333 E-score,0.00269 E-score,-0.11 E-score,–,0.0122 E-score,–,–
TGCGTGAA,-0.0667 E-score,–,–,–,-0.00954 E-score,0.263 E-score,0.175 E-score,-0.0414 E-score,–,–,0.234 E-score,–
GCAAGGAA,0.418 E-score,–,0.211 E-score,–,–,0.229 E-score,0.0652 E-score,-0.0313 E-score,0.371 E-score,–,0.18 E-score,–
CCACGCAA,0.116 E-score,–,–,–,0.0836 E-score,0.337 E-score,0.177 E-score,0.032 E-score,–,0.305 E-score,–,–
ATACGGAA,0.0254 E-score,–,–,0.223 E-score,–,0.38 E-score,-0.0916 E-score,-0.00982 E-score,–,–,–,–
ACGTTATC,0.0401 E-score,-0.00417 E-score,–,–,-0.13 E-score,0.0197 E-score,-0.00308 E-score,0.0471 E-score,–,0.162 E-score,–,–
GACACGGC,-0.154 E-score,0.42 E-score,–,-0.0307 E-score,0.0582 E-score,0.348 E-score,-0.0746 E-score,-0.0304 E-score,0.387 E-score,0.237 E-score,–,–
CACGGCAC,-0.0942 E-score,0.484 E-score,–,–,0.0373 E-score,0.485 E-score,-0.0214 E-score,-0.0768 E-score,0.474 E-score,–,–,–
GAAACGTA,0.0734 E-score,0.241 E-score,0.219 E-score,0.212 E-score,–,0.268 E-score,0.0109 E-score,-0.0124 E-score,–,0.223 E-score,–,–
